# Experimental data reported in the supplement of paper PMC8728848.
# The other results are listed elsewhere or left out.
# B1: HHL-1 (Homo sapiens), P07306 (protein)
# chain: TKEYQDLQHLDNEESDHHQLRKGPPPPQPLLQRLCSGPRLLLLSLGLSLLLLVVVCVIGSQNSQLQEELRGLRETFSNFTASTEAQVKGLSTQGGNVGRKMKSLESQLEKQQKDLSEDHSSLLLHVKQFVSDLRSLSCQMAALQGNGSERTCCPVNWVEHERSCYWFSRSGKAWADADNYCRLEDAHLVVVTSWEEQKFVQHHIGPVNTWMGLHDQNGPWKWVDGTDYETGFKNWRPEQPDDWYGHGLGGGEDCAHFTDDGRWNDDVCQRPYRWVCETELDKASQEPPLL
# Tests used:
# Experiment in all cases: glycan array binding signal (z-score within array); higher = stronger binding
# Conditions in all cases: glycan notation: IUPAC condensed, linker removed
# GlcNAc(b1-4)GlcNAc = target: GlcNAc(b1-4)GlcNAc
# Procedure, shortened: (§1)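 Glycan array data came from 3228 arrays in the Consortium for Functional Glycomics database, and only arrays with an available protein sequence were kept. Glycan names were put into IUPAC-condensed notation, and columns mapping to the same glycan were averaged. The binding signal is a within-array Z-score, averaged across arrays of one protein sequence run at different concentrations or buffers and across linkers. A negative Z-score can be read as non-binding.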
# [1] = target: GlcNAc(b1-4)GlcNAc(b1-4)GlcNAc
# Procedure, shortened: as §1
# [2] = target: GlcNAc(b1-4)GlcNAc(b1-4)GlcNAc(b1-4)GlcNAc(b1-4)GlcNAc
# Procedure, shortened: as §1
# [3] = target: GlcNAc(b1-4)GlcNAc(b1-4)GlcNAc(b1-4)GlcNAc(b1-4)GlcNAc(b1-4)GlcNAc
# Procedure, shortened: as §1
# [4] = target: GlcNAc(b1-4)[GlcNAc(b1-6)]GalNAc
# Procedure, shortened: as §1
# [5] = target: GlcNAc(b1-6)Gal(b1-4)GlcNAc
# Procedure, shortened: as §1
# GlcNAc(b1-6)GalNAc = target: GlcNAc(b1-6)GalNAc
# Procedure, shortened: as §1
# GlcNAc3Prop(b1-4)GlcNAc = target: GlcNAc3Prop(b1-4)GlcNAc
# Procedure, shortened: as §1
# [6] = target: GlcNAc6S(b1-3)Gal(b1-4)GlcNAc
# Procedure, shortened: as §1
# Kdn(a2-3)Gal(b1-3)GalNAc = target: Kdn(a2-3)Gal(b1-3)GalNAc
# Procedure, shortened: as §1
# Kdn(a2-3)Gal(b1-3)GlcNAc = target: Kdn(a2-3)Gal(b1-3)GlcNAc
# Procedure, shortened: as §1
# Kdn(a2-3)Gal(b1-4)Glc = target: Kdn(a2-3)Gal(b1-4)Glc
# Procedure, shortened: as §1
# Kdn(a2-3)Gal(b1-4)GlcNAc = target: Kdn(a2-3)Gal(b1-4)GlcNAc
# Procedure, shortened: as §1
# [7] = target: Kdn(a2-3)Gal(b1-4)[Fuc(a1-3)]GlcNAc
# Procedure, shortened: as §1
# Kdn(a2-6)Gal(b1-4)GlcNAc = target: Kdn(a2-6)Gal(b1-4)GlcNAc
# Procedure, shortened: as §1
# [8] = target: Man(a1-2)Man(a1-2)Man(a1-3)Man
# Procedure, shortened: as §1
# [9] = target: Man(a1-2)Man(a1-2)Man(a1-6)[Man(a1-3)]Man
# Procedure, shortened: as §1
# Man(a1-2)Man(a1-3)Man = target: Man(a1-2)Man(a1-3)Man
# Procedure, shortened: as §1
# [10] = target: Man(a1-2)Man(a1-3)[Man(a1-2)Man(a1-6)]Man
# Procedure, shortened: as §1
# [11] = target: Man(a1-2)Man(a1-3)[Man(a1-2)Man(a1-6)]Man(a1-6)[Man(a1-2)Man(a1-2)Man(a1-3)]Man
# Procedure, shortened: as §1
# [12] = target: Man(a1-2)Man(a1-3)[Man(a1-2)Man(a1-6)]Man(a1-6)[Man(a1-2)Man(a1-2)Man(a1-3)]Man(b1-4)GlcNAc(b1-4)GlcNAc
# Procedure, shortened: as §1
# [13] = target: Man(a1-2)Man(a1-3)[Man(a1-6)]Man(a1-6)[Man(a1-2)Man(a1-3)]Man(b1-4)GlcNAc(b1-4)GlcNAc
# Procedure, shortened: as §1
# [14] = target: Man(a1-2)Man(a1-6)[Man(a1-3)]Man(a1-6)[Man(a1-2)Man(a1-2)Man(a1-3)]Man
# Procedure, shortened: as §1
# [15] = target: Man(a1-2)Man(a1-6)[Man(a1-3)]Man(a1-6)[Man(a1-2)Man(a1-2)Man(a1-3)]Man(b1-4)GlcNAc(b1-4)GlcNAc
# Procedure, shortened: as §1
# Man(a1-3)[Man(a1-6)]Man = target: Man(a1-3)[Man(a1-6)]Man
# Procedure, shortened: as §1
# [16] = target: Man(a1-3)[Man(a1-6)]Man(a1-6)[Man(a1-2)Man(a1-3)]Man(b1-4)GlcNAc(b1-4)GlcNAc
# Procedure, shortened: as §1
# [17] = target: Man(a1-3)[Man(a1-6)]Man(a1-6)[Man(a1-3)]Man
# Procedure, shortened: as §1
# [18] = target: Man(a1-3)[Man(a1-6)]Man(a1-6)[Man(a1-3)]Man(b1-4)GlcNAc(b1-4)GlcNAc
# Procedure, shortened: as §1
# [19] = target: Man(a1-3)[Man(a1-6)]Man(b1-4)GlcNAc(b1-4)GlcNAc
# Procedure, shortened: as §1
# Man(a1-6)Man = target: Man(a1-6)Man
# Procedure, shortened: as §1
# Man(b1-4)GlcNAc = target: Man(b1-4)GlcNAc
# Procedure, shortened: as §1
# Neu5Ac(a2-3)Gal = target: Neu5Ac(a2-3)Gal
# Procedure, shortened: as §1
# [20] = target: Neu5Ac(a2-3)Gal(b1-3)GalNAc
# Procedure, shortened: as §1
# [21] = target: Neu5Ac(a2-3)Gal(b1-3)GalNAc(b1-3)Gal(a1-4)Gal(b1-4)Glc
# Procedure, shortened: as §1
# [22] = target: Neu5Ac(a2-3)Gal(b1-3)GalNAc(b1-3)Gal(b1-4)GlcNAc
# Procedure, shortened: as §1
# [23] = target: Neu5Ac(a2-3)Gal(b1-3)GalNAc(b1-4)[Neu5Ac(a2-3)]Gal(b1-4)Glc
# Procedure, shortened: as §1
# [24] = target: Neu5Ac(a2-3)Gal(b1-3)GalNAc6S
# Procedure, shortened: as §1
# [25] = target: Neu5Ac(a2-3)Gal(b1-3)GlcNAc
# Procedure, shortened: as §1
# [26] = target: Neu5Ac(a2-3)Gal(b1-3)GlcNAc(b1-3)Gal(b1-3)GlcNAc
# Procedure, shortened: as §1
# [27] = target: Neu5Ac(a2-3)Gal(b1-3)GlcNAc6S
# Procedure, shortened: as §1
# [28] = target: Neu5Ac(a2-3)Gal(b1-3)[Fuc(a1-4)]GlcNAc
# Procedure, shortened: as §1
# [29] = target: Neu5Ac(a2-3)Gal(b1-3)[Fuc(a1-4)]GlcNAc(b1-3)Gal(b1-3)[Fuc(a1-4)]GlcNAc
# Procedure, shortened: as §1
# [30] = target: Neu5Ac(a2-3)Gal(b1-3)[Fuc(a1-4)]GlcNAc(b1-3)Gal(b1-4)[Fuc(a1-3)]GlcNAc
# Procedure, shortened: as §1
# [31] = target: Neu5Ac(a2-3)Gal(b1-3)[Neu5Ac(a2-3)Gal(b1-4)]GlcNAc
# Procedure, shortened: as §1
# [32] = target: Neu5Ac(a2-3)Gal(b1-3)[Neu5Ac(a2-6)]GalNAc
# Procedure, shortened: as §1
# Neu5Ac(a2-3)Gal(b1-4)Glc = target: Neu5Ac(a2-3)Gal(b1-4)Glc
# Procedure, shortened: as §1
# [33] = target: Neu5Ac(a2-3)Gal(b1-4)GlcNAc
# Procedure, shortened: as §1
# [34] = target: Neu5Ac(a2-3)Gal(b1-4)GlcNAc(b1-2)Man(a1-3)[GlcNAc(b1-2)Man(b1-4)GlcNAc(b1-2)Man(a1-6)]Man(b1-4)GlcNAc(b1-4)GlcNAc
# Procedure, shortened: as §1
# [35] = target: Neu5Ac(a2-3)Gal(b1-4)GlcNAc(b1-2)Man(a1-3)[Neu5Ac(a2-6)Gal(b1-4)GlcNAc(b1-2)Man(a1-6)]Man(b1-4)GlcNAc(b1-4)GlcNAc
# Procedure, shortened: as §1
# [36] = target: Neu5Ac(a2-3)Gal(b1-4)GlcNAc(b1-3)Gal(b1-3)GlcNAc
# Procedure, shortened: as §1
# [37] = target: Neu5Ac(a2-3)Gal(b1-4)GlcNAc(b1-3)Gal(b1-4)GlcNAc
# Procedure, shortened: as §1
# [38] = target: Neu5Ac(a2-3)Gal(b1-4)GlcNAc(b1-3)Gal(b1-4)GlcNAc(b1-3)Gal(b1-4)GlcNAc
# Procedure, shortened: as §1
# [39] = target: Neu5Ac(a2-3)Gal(b1-4)GlcNAc(b1-3)Gal(b1-4)[Fuc(a1-3)]GlcNAc
# Procedure, shortened: as §1
# [40] = target: Neu5Ac(a2-3)Gal(b1-4)GlcNAc(b1-3)GalNAc
# Procedure, shortened: as §1
# [41] = target: Neu5Ac(a2-3)Gal(b1-4)GlcNAc(b1-6)[Gal(b1-3)]GalNAc
# Procedure, shortened: as §1
# [42] = target: Neu5Ac(a2-3)Gal(b1-4)GlcNAc(b1-6)[Neu5Ac(a2-3)Gal(b1-3)]GalNAc
# Procedure, shortened: as §1
# [43] = target: Neu5Ac(a2-3)Gal(b1-4)GlcNAc6S
# Procedure, shortened: as §1
binder,measurement,setting,value
B1,glycan array binding signal (z-score),GlcNAc(b1-4)GlcNAc,-0.421
same,glycan array binding signal (z-score),[1],-0.434
same,glycan array binding signal (z-score),[2],-0.149
same,glycan array binding signal (z-score),[3],-0.52
same,glycan array binding signal (z-score),[4],-0.467
same,glycan array binding signal (z-score),[5],0.054
same,glycan array binding signal (z-score),GlcNAc(b1-6)GalNAc,7.59
same,glycan array binding signal (z-score),GlcNAc3Prop(b1-4)GlcNAc,-0.427
same,glycan array binding signal (z-score),[6],-0.421
same,glycan array binding signal (z-score),Kdn(a2-3)Gal(b1-3)GalNAc,-0.48
same,glycan array binding signal (z-score),Kdn(a2-3)Gal(b1-3)GlcNAc,-0.538
same,glycan array binding signal (z-score),Kdn(a2-3)Gal(b1-4)Glc,-0.536
same,glycan array binding signal (z-score),Kdn(a2-3)Gal(b1-4)GlcNAc,0.051
same,glycan array binding signal (z-score),[7],0.447
same,glycan array binding signal (z-score),Kdn(a2-6)Gal(b1-4)GlcNAc,0.024
same,glycan array binding signal (z-score),[8],-0.548
same,glycan array binding signal (z-score),[9],-0.116
same,glycan array binding signal (z-score),Man(a1-2)Man(a1-3)Man,-0.555
same,glycan array binding signal (z-score),[10],0.449
same,glycan array binding signal (z-score),[11],-0.537
same,glycan array binding signal (z-score),[12],-0.069
same,glycan array binding signal (z-score),[13],0.46
same,glycan array binding signal (z-score),[14],0.162
same,glycan array binding signal (z-score),[15],-0.43
same,glycan array binding signal (z-score),Man(a1-3)[Man(a1-6)]Man,-0.472
same,glycan array binding signal (z-score),[16],-0.485
same,glycan array binding signal (z-score),[17],-0.53
same,glycan array binding signal (z-score),[18],-0.011
same,glycan array binding signal (z-score),[19],-0.456
same,glycan array binding signal (z-score),Man(a1-6)Man,-0.551
same,glycan array binding signal (z-score),Man(b1-4)GlcNAc,-0.539
same,glycan array binding signal (z-score),Neu5Ac(a2-3)Gal,-0.524
same,glycan array binding signal (z-score),[20],0.366
same,glycan array binding signal (z-score),[21],0.139
same,glycan array binding signal (z-score),[22],-0.541
same,glycan array binding signal (z-score),[23],-0.564
same,glycan array binding signal (z-score),[24],-0.473
same,glycan array binding signal (z-score),[25],0.347
same,glycan array binding signal (z-score),[26],-0.449
same,glycan array binding signal (z-score),[27],-0.011
same,glycan array binding signal (z-score),[28],-0.492
same,glycan array binding signal (z-score),[29],-0.53
same,glycan array binding signal (z-score),[30],-0.48
same,glycan array binding signal (z-score),[31],-0.548
same,glycan array binding signal (z-score),[32],-0.238
same,glycan array binding signal (z-score),Neu5Ac(a2-3)Gal(b1-4)Glc,-0.422
same,glycan array binding signal (z-score),[33],-0.203
same,glycan array binding signal (z-score),[34],0.274
same,glycan array binding signal (z-score),[35],-0.393
same,glycan array binding signal (z-score),[36],-0.121
same,glycan array binding signal (z-score),[37],-0.542
same,glycan array binding signal (z-score),[38],0.175
same,glycan array binding signal (z-score),[39],0.959
same,glycan array binding signal (z-score),[40],-0.49
same,glycan array binding signal (z-score),[41],0.376
same,glycan array binding signal (z-score),[42],0.154
same,glycan array binding signal (z-score),[43],-0.208
